Data as given in US6485935 (YALE UNIVERSITY, dated 2002).

Target: T1, Purified ankyrin (AnkR), biotinylated (UniProt P16157 1-1881, limits assumed, biotinylated (sites not given))
T1 construct: also called purified biotinylated ankyrin
Experiment: biotinylated ankyrin (0.001-1.0 µM) incubated with GST-MAB; bound fraction quantified from autofluorograms; non-linear regression, bi-molecular model
Experimental: (top) Purified Ank_R was biotinylated, and incubated with GST-MAB (peptide IIa) or GST. Lane A, purified biotinylated ankyrin (30 ng); lanes 1 to 8 respectively, 0.001, 0.005, 0.01, 0.05, 0.1, 0.3, 0.5, and 1.0 μM ankyrin. Shown are the autofluorograms of the bound fractions for either GST-MAB or GST alone. (bottom) The ankyrin in the GST-MAB (●) or GST (□) bound fractions as a function of the ankyrin concentration.
Purified ankyrin (Ank_R) was biotinylated, and its binding to GST-MAB or GST measured (FIG. 5). […] Thus, while other regions of α-Na,K-ATPase such as the ALLK motif (SEQ ID NO: 6) identified in CD3 may contribute to its interaction with ankyrin (29,30), the 25 residues identified here are sufficient, and bind specifically to ankyrin but not to other proteins present in the whole kidney lysates (FIG. 1). GST alone was devoid of significant binding activity (FIG. 5).

T1 sequence (P16157 whole entry): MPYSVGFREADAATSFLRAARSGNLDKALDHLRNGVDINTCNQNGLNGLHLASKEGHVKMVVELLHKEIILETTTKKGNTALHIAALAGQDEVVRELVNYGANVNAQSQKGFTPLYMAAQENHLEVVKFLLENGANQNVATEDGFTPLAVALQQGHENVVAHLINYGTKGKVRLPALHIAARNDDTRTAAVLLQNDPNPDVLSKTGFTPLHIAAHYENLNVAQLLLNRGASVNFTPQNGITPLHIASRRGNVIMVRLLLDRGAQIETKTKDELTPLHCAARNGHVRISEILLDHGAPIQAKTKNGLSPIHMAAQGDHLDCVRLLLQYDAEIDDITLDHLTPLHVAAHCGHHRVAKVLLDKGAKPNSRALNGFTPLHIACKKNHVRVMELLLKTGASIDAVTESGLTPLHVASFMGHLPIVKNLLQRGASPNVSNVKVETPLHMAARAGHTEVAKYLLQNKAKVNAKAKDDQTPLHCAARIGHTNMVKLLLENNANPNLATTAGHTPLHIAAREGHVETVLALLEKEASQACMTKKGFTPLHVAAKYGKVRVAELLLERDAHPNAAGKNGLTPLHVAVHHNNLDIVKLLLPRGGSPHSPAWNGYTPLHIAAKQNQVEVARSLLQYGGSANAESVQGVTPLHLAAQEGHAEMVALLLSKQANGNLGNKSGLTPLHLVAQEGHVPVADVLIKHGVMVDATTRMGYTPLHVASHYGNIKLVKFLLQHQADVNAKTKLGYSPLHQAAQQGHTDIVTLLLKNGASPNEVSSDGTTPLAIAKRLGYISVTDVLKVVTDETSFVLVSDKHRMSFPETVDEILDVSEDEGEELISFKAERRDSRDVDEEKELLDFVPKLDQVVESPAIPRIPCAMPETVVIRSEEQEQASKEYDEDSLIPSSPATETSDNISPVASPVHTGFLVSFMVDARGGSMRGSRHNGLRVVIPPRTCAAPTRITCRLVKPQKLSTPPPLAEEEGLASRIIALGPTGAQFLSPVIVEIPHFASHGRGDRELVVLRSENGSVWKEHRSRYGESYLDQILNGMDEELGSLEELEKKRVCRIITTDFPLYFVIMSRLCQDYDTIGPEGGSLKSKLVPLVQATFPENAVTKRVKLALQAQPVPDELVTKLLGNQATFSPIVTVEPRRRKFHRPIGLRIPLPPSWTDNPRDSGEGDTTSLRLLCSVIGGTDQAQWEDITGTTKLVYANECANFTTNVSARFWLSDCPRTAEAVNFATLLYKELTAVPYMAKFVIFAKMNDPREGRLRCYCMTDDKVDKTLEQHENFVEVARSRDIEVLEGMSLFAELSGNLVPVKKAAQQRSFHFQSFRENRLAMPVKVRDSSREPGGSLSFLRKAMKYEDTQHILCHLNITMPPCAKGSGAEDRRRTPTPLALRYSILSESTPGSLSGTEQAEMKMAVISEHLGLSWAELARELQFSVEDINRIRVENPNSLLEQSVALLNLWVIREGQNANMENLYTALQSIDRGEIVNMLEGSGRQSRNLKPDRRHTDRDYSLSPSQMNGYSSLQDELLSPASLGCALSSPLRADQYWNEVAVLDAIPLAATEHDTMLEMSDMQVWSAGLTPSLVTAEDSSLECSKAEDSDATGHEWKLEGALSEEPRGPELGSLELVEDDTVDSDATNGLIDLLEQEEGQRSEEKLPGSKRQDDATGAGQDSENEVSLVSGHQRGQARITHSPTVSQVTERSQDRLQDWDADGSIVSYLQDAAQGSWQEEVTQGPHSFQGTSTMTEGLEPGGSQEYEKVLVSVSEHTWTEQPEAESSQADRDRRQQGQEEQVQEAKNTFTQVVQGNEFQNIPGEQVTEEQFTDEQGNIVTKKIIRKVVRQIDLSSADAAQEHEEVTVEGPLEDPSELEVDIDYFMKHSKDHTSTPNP

B1: GST-MAB fusion peptide (glutathione-S-transferase fused to the minimal ankyrin binding domain, […] of rat α-Na,K-ATPase) (other)
chain: not shown
notes: also called peptide IIa; peptide IIA
Kd: 118 nM
